Experimental data taken from the supplement of paper PMC11417369.
The list shows a part of the results.

test system: PfSIP2 AP2 domain 1 (GST-tagged); assay: gcPBM binding intensity (ln(normalized median fluorescence intensity)); higher = stronger DNA binding
Procedure, shortened: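 Each value is the highest Masliner-normalised natural-log median intensity across replicate spots of either orientation of a probe. The probes were primer-extended double-stranded 36-bp intergenic genomic sequences on an Agilent 4 × 180k array, alongside negative controls, exposed for 1 h to GST-tagged P. falciparum DNA-binding domains expressed in E. coli. Bound protein was picked up with Alexa488 anti-GST antibody and scanned at 488 nm.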

How did the “gcPBM binding intensity (ln)” value turn out when “TATTTAAGAGTATGAACACACATCATACACATATAA [CACACA_site3617]” was run?
Its value is 6.9.

How did the “gcPBM binding intensity (ln)” value turn out when “TATGTTTGTGTATATATTTATTTTTATGTAATTATA [GTGCAC_negctrl_site219]” was run?
The value was 7.22.

With “ATCTATATAATATATACACACAAATATACAAAAAAA [CACACA_site1013]” as the sequence, how does the “gcPBM binding intensity (ln)” value read?
The value was 7.11.

For “ATAAATTAAAGACACACACACATCTGGATACCCCTA [CACACA_site7546]”, which “gcPBM binding intensity (ln)” value is on record?
The value was 6.98.

With “TACATGCATTTCTCATGTACATAATTTTCCCATATT [XGTACX_site5158]” as the sequence, how does the “gcPBM binding intensity (ln)” value read?
The value was 6.9.

Which “gcPBM binding intensity (ln)” value does the source give for “TTATATTATATATATAGTACACATGTAATATTTCAA [XGTACX_site1791]” here?
Its value is 7.22.

“TTTTATACATAAATGTGTACGTATATATAATGAATT [XGTACX_site2762]” was tested. Which “gcPBM binding intensity (ln)” value did it give?
Its value is 7.2.

Which “gcPBM binding intensity (ln)” value does the source give for “TAAATATGCTCACAGATGCACTAACACATTTTTATA [GTGCAC_site9997]” here?
The value was 8.14.

“TATTGTAGAGGCAAAAGTACACATTTAATAATTTCC [XGTACX_site1151]” was tested. Which “gcPBM binding intensity (ln)” value did it give?
Its value is 6.84.

“TCCTTATATGGGCACACACACACAATAAAATGAAAA [CACACA_site1030]” was tested. Which “gcPBM binding intensity (ln)” value did it give?
The value was 7.59.

Which “gcPBM binding intensity (ln)” value does the source give for “AAAATTAGGTATATATGTACATATATAAATATATAT [XGTACX_site3555]” here?
Its value is 7.26.

“GTTTATATTAAACAAACACACACATATATATATATA [CACACA_site8749]” was tested. Which “gcPBM binding intensity (ln)” value did it give?
The value was 9.29.

Which “gcPBM binding intensity (ln)” value does the source give for “TATGCTACAAGGAGAACACACAATTGCCACTTTTGG [CACACA_site2166]” here?
Its value is 6.72.

For “AACCATTATTTCTCTACACACATTTATGTCATTTAC [CACACA_site1499]”, which “gcPBM binding intensity (ln)” value is on record?
Its value is 7.13.

With “ATGTATATGATTAAATGTACGTAAACAAATTTGTAA [XGTACX_site8174]” as the sequence, how does the “gcPBM binding intensity (ln)” value read?
The value was 7.13.

“ACCACATAAAACAAATGTACTTGAAATATATGCGTA [XGTACX_site5155]” was tested. Which “gcPBM binding intensity (ln)” value did it give?
The value was 6.96.

Which “gcPBM binding intensity (ln)” value does the source give for “CAAAGGGAAATTAACACACACATATTTATATTTATA [CACACA_site7202]” here?
Its value is 6.8.

For “TATTAATAAATTTATAAAACAGGTATATATATATAT [CACACA_negctrl_site615]”, which “gcPBM binding intensity (ln)” value is on record?
Its value is 9.33.

“AAGAAAACTTAAAATAAAAGCATATTTTATCTTACA [TGCATGCA_negctrl_site366]” was tested. Which “gcPBM binding intensity (ln)” value did it give?
Its value is 6.5.

Which “gcPBM binding intensity (ln)” value does the source give for “TGCAGTCTGGAGAAGAGTACATAGTATCTGGTAGCT [XGTACX_site2021]” here?
The value was 6.72.

With “AGAGTACAAGTAAATACACACATATAGATGAAAATA [CACACA_site6635]” as the sequence, how does the “gcPBM binding intensity (ln)” value read?
Its value is 6.96.

For “ATATATATATATATATGTACACACATCAATCATATT [XGTACX_site4005]”, which “gcPBM binding intensity (ln)” value is on record?
The value was 9.34.

How did the “gcPBM binding intensity (ln)” value turn out when “ATATTTTATATTTCTTGTACATATATTTGTAGATAT [XGTACX_site1140]” was run?
Its value is 7.07.

“TTTCTTACAACAACAACAAAAAAAAATAAATAAAAT [GTGCAC_negctrl_site711]” was tested. Which “gcPBM binding intensity (ln)” value did it give?
Its value is 6.87.

Which “gcPBM binding intensity (ln)” value does the source give for “AATTTATTTTTAAAAAGTACATACTTAAGAAAACGA [XGTACX_site3660]” here?
The value was 7.59.

With “TATTATTTTTTTATTCTATTAAAAAGAAAAAAATGA [CACACA_negctrl_site407]” as the sequence, how does the “gcPBM binding intensity (ln)” value read?
Its value is 6.73.

How did the “gcPBM binding intensity (ln)” value turn out when “CCATTTAAAACATTTTGTACTTATTTTACATTTCTG [XGTACX_site4270]” was run?
Its value is 7.06.

“TCGACAATTTTATAAAGTACTTATTAGAAATATGAA [XGTACX_site7133]” was tested. Which “gcPBM binding intensity (ln)” value did it give?
Its value is 6.89.

Which “gcPBM binding intensity (ln)” value does the source give for “GATTCATTTCATAATACACACAACAAATATTTCAAA [CACACA_site120]” here?
The value was 7.28.

For “AAACAAATAAAATTTATTAAAAAGGTCATATTATTA [CACACA_negctrl_site85]”, which “gcPBM binding intensity (ln)” value is on record?
The value was 6.58.

With “AGAAAAAAAAATTATACATGCATATACGTTTATTTT [TGCATGCA_site529]” as the sequence, how does the “gcPBM binding intensity (ln)” value read?
The value was 6.85.

With “ATAAAAAAAAGACACACACACATATATATATATATA [CACACA_site3073]” as the sequence, how does the “gcPBM binding intensity (ln)” value read?
The value was 9.25.

With “TAAATATATTTCATGACATGCAACTTGTTTTTTTGT [TGCATGCA_site456]” as the sequence, how does the “gcPBM binding intensity (ln)” value read?
Its value is 6.72.

“TCAACACACGTGGAATGTACTTTAGTATAAGAATTC [XGTACX_site7842]” was tested. Which “gcPBM binding intensity (ln)” value did it give?
Its value is 6.82.

With “TATATATATATATAAACACACATAAATATAAATATA [CACACA_site1121]” as the sequence, how does the “gcPBM binding intensity (ln)” value read?
The value was 8.9.

With “ATATATATATTTTATGCATGTTCATTTTCTATATTT [TGCATGCA_site442]” as the sequence, how does the “gcPBM binding intensity (ln)” value read?
Its value is 8.1.

Which “gcPBM binding intensity (ln)” value does the source give for ATAATATATACGTGTGTGCACATGACAAAAGCATAT here?
Its value is 9.07.

Which “gcPBM binding intensity (ln)” value does the source give for “GTTAATGTGGTTACTTGTACATATTAACGTCTTTTT [XGTACX_site2617]” here?
The value was 6.98.

How did the “gcPBM binding intensity (ln)” value turn out when “AAAAAAAAAATATACACACACATATATATATATATA [CACACA_site3404]” was run?
Its value is 9.51.

Which “gcPBM binding intensity (ln)” value does the source give for “CCCACAGACAAAAACACACACAAAGGTGTTCTTATA [CACACA_site4840]” here?
Its value is 7.

“AAGAGAAAAAGAATGAAAGAAAAAAAAAAAAAATAT [CACACA_negctrl_site1527]” was tested. Which “gcPBM binding intensity (ln)” value did it give?
The value was 6.98.

Which “gcPBM binding intensity (ln)” value does the source give for “TTTTTAAAGGTGATAAAACACACGATTTAGAAATGT [CACACA_site3160]” here?
Its value is 7.1.

For “TTATCGACCAATAAAGCATGCAAAAAAAAAAAAAAA [TGCATGCA_site788]”, which “gcPBM binding intensity (ln)” value is on record?
The value was 6.96.

For “CTACATAAAAAAATATGTACATATATATATATATAT [XGTACX_site667]”, which “gcPBM binding intensity (ln)” value is on record?
The value was 9.13.
